# Results published in the supplement of paper PMC11417369.
# The list shows a part of the results.
# Tested on: PF3D7_0420300 AP2 domain 1 (GST-tagged)
# Test: gcPBM binding intensity (ln(normalized median fluorescence intensity)); higher = stronger DNA binding
# Summary of the method: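 Probes on an Agilent 4 × 180k array were primer-extended, double-stranded and 36 bp long, taken from intergenic genomic regions, with negative controls added. GST-tagged P. falciparum DNA-binding domains from E. coli, about 25 μg on average, were applied to the array for 1 h in 1× PBS containing 1% milk, 0.2 mg/ml BSA, 0.5% salmon testes DNA and 0.03% Triton X-100. Binding intensity, obtained after Alexa488 anti-GST antibody detection and a 488 nm scan, is the highest Masliner-normalised natural-log median intensity across replicate spots of either probe orientation.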
row,Sequence,gcPBM binding intensity (ln)
1,CTAAAAAATAGTAAAAGTACATAAATAATTTTGCTT [XGTACX_site8919],9.2
2,TTACACATGTTTAACTGTACACATAATAGCAATATT [XGTACX_site8545],9.29
3,ACAATTATTTTGTTCTTTAATGGTAGGTTCTATGTC [CACACA_negctrl_site1419],9.25
4,AATACACGCAGACACACACACACACGCACATATATA [CACACA_site6447],10.3
5,CATAAATTACTTTTTACACACTAAAATAAAATACAA [CACACA_site1135],9.37
6,AATAATATTTAATACACACACCAGTTCTGCAAATTT [CACACA_site7712],9.71
7,GAAAAAAGAAATTAAACATGCATCTGCAAATTTAAA [TGCATGCA_site974],9.06
8,AATAGTAAAAGATATACACACACCAAAAAATATAAT [CACACA_site5293],9.99
9,TGCTACATTTTATGTACACACATATACAGATATATA [CACACA_site4646],9.42
10,TGAATAAATCAAAGCACACATACACCCACATATATA [CACACA_site286],9.56
11,ACATAATAAAAATAAATTCATAAGTAAATAAATAAA [TGCATGCA_negctrl_site186],9.31
12,TATATATATATATGATGTACATGAAAATTTCCAAAA [XGTACX_site5472],9.27
13,TATATTTTTTAATTCACACAAAAATGAAAAATATTT [CACACA_site6001],8.95
14,ATATCTGAAGTGTAAAGTACATATATATATTCATAT [XGTACX_site4612],9.3
15,CAATTTTACTCATAAACACACATATAGATGTTATTA [CACACA_site7474],9.2
16,AATATAAATAATAGTAGTACATATATATCTCAGAAA [XGTACX_site4055],9.4
17,AATGGAGTTTATAAGTATAAACGAGGGATACCTAAA [XGTACX_negctrl_site483],9.33
18,TAAATAAATTTATACACACACACACCCATATATATA [CACACA_site849],10.2
19,AAAAAATCAAAACACACACACACACTAGAAAAAAAA [CACACA_site4909],10.3
20,TTATGTTGTAAATGCACACATACATATACGCAGTTT [CACACA_site3015],9.29
21,AATAAAAATATATCCACACACATATATATATCTGTA [CACACA_site4481],9.68
22,TATATTATATTTTTATGTACATATATGTTTTTTTTT [XGTACX_site8239],9.51
23,ATTTTATCAAGAGGAAGTACATTACCCCATGAAAAA [XGTACX_site8295],9.15

row,Sequence,gcPBM binding intensity (ln)
1,TATAATATATATATATTTATATATATCTTCCTAATC [GTGCAC_negctrl_site682],8.89
2,TTTTTTTATATAGACACAAAAGAAAATTACATATAC [CACACA_negctrl_site235],9.13
3,GATTTGTCTTACAGTGGTACACTTATATATATGTGA [XGTACX_site2899],9.34
4,AATATTTATTTTATATGTACATAATTTATTTTTAAT [XGTACX_site776],9.26
5,AAAAAAAAAAAAAAAACACACAAGGATCATATATAT [CACACA_site3812],9.81
6,TATGAAGTACACAATACACACTAATTATATATAAAT [CACACA_site5444],9.57
7,TTTTTAAAAAAACATACACACAAAAAAAAAAAAAAA [CACACA_site3935],9.11
8,TATATATATTATAATACATGCGGTGATGAAAGTTAT [TGCATGCA_site924],9.5
9,TATAAATATAGACACACACACACCAAAGCGTAGCGC [CACACA_site6179],9.88
10,AAAAAACATTTTCGAGTGCATGTTTTGCTTTATTTC,9.22
11,AATAATTTGGTCTTATCAAAAATTAAAAATAAATAA [XGTACX_negctrl_site430],8.95
12,TTAAATGTTAAAAGGGTGCTATTATATAAATGAAAA [GTGCAC_site9882],9.16
13,TTCATATGTTTTAACACACACGCATATATTATATAT [CACACA_site2007],9.8
14,AAATAAAAATAAAATAAAATAAAATTAAATGGGAAT [GTGCAC_negctrl_site349],9.54
15,GTTTTATATTATATATGTACATATCCATGAGATATA [XGTACX_site3328],9.4
16,TTTAACTTTTATATAACACACATATTGTAATTATGT [CACACA_site6486],9.43
17,TGTAAACATAAGATATGTACTTATATCATATTATAA [XGTACX_site6883],9.1
18,ATGACAATTCAAAATTGTACATAAAAAAAAAAAAAA [XGTACX_site7560],8.83
19,AAAAAAAAAAAAAAAGCACACACCAATGAGCAGCTT [CACACA_site1845],9.33
20,CACACCCACAGACACACACACACATATATAATATAT [CACACA_site594],10.2
21,TATAATCATATACACGCATGTATAAAATTTAATACT [TGCATGCA_site700],9.22
22,TAATATATGTATTATGCATGTGAATAAGCACTTGAT [TGCATGCA_site848],9.14
23,ATATGTTACAAAGATTGTACTTATTAAGGAGCGACT [XGTACX_site5094],9.3

row,Sequence,gcPBM binding intensity (ln)
1,ACATTCAAGCGTAATTGTACATACATATATATATAT [XGTACX_site8876],9.42
2,ATGTATATAAATAGTAGTACATTATTTCACACTGTA [XGTACX_site2061],9.27
3,TATTGTATCCTTAATGCATGCACCAAATAAAAAAAG [TGCATGCA_site541],9.11
4,ACCATATGTACATTTTTTTTTTTTTTTTTTTTTTTT [CACACA_negctrl_site1188],9.45
5,ATATATATATAATGTAGTACTATTTAATAATAAGCC [XGTACX_site1263],9.61
6,TAAAAAAATTTTACAAGTACAAAAAAATGTAATAAA [XGTACX_site4829],9.22
7,ATATATATAGATCGAAGTACAGATAGAATGAAAATA [XGTACX_site2695],9.34
8,ACAAGAGAAAAAAATACACACAAGATAAAAATGTAT [CACACA_site607],9.91
9,TATGCTTTTACAATGTGTACTTATATTTTTCACAGG [XGTACX_site6201],9.24
10,ATATATCATCATGTATGTACACACATACATATATTA [XGTACX_site2814],9.54
11,TAATTTTCAATAATTTGTACATAATTTTTATAAATT [XGTACX_site8133],8.85
12,AACCATAAAAAGTGTACACATATAAAAAATATGGAA [CACACA_site4199],9.52
13,TATATAAATTAACCAGTGCATTATTTGGAAATTATT,9.31
14,TAAAAATTACTATATGAACACACATGATTAGATATA [CACACA_site9012],9.35
15,AGGTGATTAATATATACACACATACATATATATATA [CACACA_site8913],9.64
16,TAATAATAATTAAATTGTACATATAATATAATATAA [XGTACX_site8554],9.08
17,AATAAAGTAATAACTACACACATTTATAAAAAAGTA [CACACA_site3753],9.63
18,ATATTATCATATTCGAGTACACGAAGTATTATTGCA [XGTACX_site6765],9.19
19,AACATATTGGATTTAGTGCACATATATATCATAATA,9.24
20,AAAAATTACCCTTGTGTACACATATATTATCTGTAT [CACACA_site4513],9.59
21,TCTTATAAACATGTATATATTAAAAAAAAAAAAAAA [TGCATGCA_negctrl_site86],8.86
22,TATAAGCTTTCAATGTGTACATATTATTTTATTATT [XGTACX_site3988],9.44
23,AATATGGTTATATATATATATATATATATATATATT [GTGCAC_negctrl_site566],9.17

row,Sequence,gcPBM binding intensity (ln)
1,TTATTATATAAAATAAATAACAAAAAAAATAAAATA [GTGCAC_negctrl_site548],9.2
2,ATTGTTTTATATAGAACACACATAAAAATCTATATG [CACACA_site6681],9.26
3,CAACATTTATATTTTACACACATCATTTAAGCGCTT [CACACA_site992],9.58
4,TTTGAAATAAATAATGCACACTCTACATATATACGT [CACACA_site2244],9.39
5,CCTATCCATACATATACACACATATCTATTTATATA [CACACA_site1669],9.71
6,AAATAAAATACAAGTTGTACTATAAGCTTTTTATAT [XGTACX_site8021],9.28
7,TAATTTAATAATTAGACACACATGTCTAAAATAAAA [CACACA_site2527],8.95
8,AAAAGAAATTTGGGCACATGCGAATTTATAATTTAT [TGCATGCA_site960],9.29
9,TAAAGTATTACAACCACACACACACCGATATATTAT [CACACA_site9382],9.99
10,TATATATATATATATACATGCATATTTTTTATTTTT [TGCATGCA_site464],9.05
11,TTTTTTATATATATTTGTACATATTGCATGTTCCCT [XGTACX_site7143],9.35
12,TGTCTTATATATATTACACACTATATGAAAAAATAT [CACACA_site1487],9.29
13,TATATTTATCTGATAACACACATAAATTAGACATTT [CACACA_site6887],9.2
14,TGTTTTTGTGATCATATGAAAAAATTACCTACAAGG [CACACA_negctrl_site279],9.03
15,ATAGTATCTGGTAGCTGTACGAGTCGTATAGTGCAG [XGTACX_site2542],9.29
16,TTTCCGTATAATTTTGCACACGAATATAAATTTGAT [CACACA_site137],9.34
17,ATAGTTTTACACATTTGTACATAATTTACAACAAAA [XGTACX_site25],9.12
18,TTTAATCAAATTAAAAGTACAGAATTGTTCATGTAG [XGTACX_site1229],9.05
19,ATATATATATATTCCACACACACACTAATAAAAAAA [CACACA_site9214],9.94
20,AAAAAATATTATATATGTACATAATATTTTTTTTTT [XGTACX_site5909],9.01
